Screen size: about 45,000 compounds; about 65 (0.1%) were called active. The call rests on the fitted dose curve; in most records, active means well fitted activation curve with a large enough effect; inconclusive means small, poorly fitted or top-dose-only effect; inactive means no such curve, though single readings can be large or run the other way. The list shows a part of the results.
These compounds were tested against Galactocerebrosidase (Homo sapiens) (UniProt P54803) (assay: A Novel Cell-Based Assay to Identify Small Molecules for B -Galactocerebrosidase). Settings: 145M-Twi-hGALC-G270D cells (Twitcher mouse brain line with human GALC G270D), HMU-beta-Gal fluorescence, 48 h; series mostly up to 57.5 µM; activation: at the top concentration.
Outline: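 Fluorescence readout: HMU-β-gal cleavage by mutant GALC (0.1 mM final, citrate/phosphate pH 5.2 with 1 mg/mL taurocholate), stopped with carbonate/bicarbonate plus Triton X-100. Cells: murine Twitcher 145M-Twi expressing human G270D GALC; qHTS for activators.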
Further: 0% is about no effect; nearly all actives have a fitted effect of over 65% in size.

UniProt P54803, sequence (P54803 whole entry, looked up): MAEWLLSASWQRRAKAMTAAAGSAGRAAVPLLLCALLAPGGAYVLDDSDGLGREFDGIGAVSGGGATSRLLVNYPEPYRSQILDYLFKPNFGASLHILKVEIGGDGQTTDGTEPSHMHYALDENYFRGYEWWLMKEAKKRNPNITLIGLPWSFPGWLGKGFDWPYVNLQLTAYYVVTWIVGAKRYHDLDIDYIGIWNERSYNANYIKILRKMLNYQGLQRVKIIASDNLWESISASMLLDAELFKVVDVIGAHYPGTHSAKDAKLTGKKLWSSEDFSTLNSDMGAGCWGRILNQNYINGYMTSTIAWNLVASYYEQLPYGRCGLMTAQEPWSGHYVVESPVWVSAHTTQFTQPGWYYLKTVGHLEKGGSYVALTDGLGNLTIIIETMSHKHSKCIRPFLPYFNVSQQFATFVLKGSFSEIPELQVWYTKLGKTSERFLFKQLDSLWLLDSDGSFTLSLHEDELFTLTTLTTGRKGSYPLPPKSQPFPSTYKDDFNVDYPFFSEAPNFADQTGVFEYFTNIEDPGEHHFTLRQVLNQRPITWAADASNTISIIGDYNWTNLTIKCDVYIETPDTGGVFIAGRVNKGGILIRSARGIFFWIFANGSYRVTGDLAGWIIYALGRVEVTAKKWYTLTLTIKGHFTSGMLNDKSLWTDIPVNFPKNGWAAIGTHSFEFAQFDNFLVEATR

activation, inactive:
CC(C)CC(=O)Nc1ccc2nc(SCC(=O)N3CCc4ccccc43)sc2c1 -3.79%, CCOc1ccccc1CNC(=O)c1sc2ncccc2c1-n1cccc1 -18.7%, COc1ccccc1NC(=O)CSc1ncc2c(n1)-c1ccccc1N(Cc1ccccc1C)S2(=O)=O 1.56%, Cc1c(N)cccc1C(F)(F)F -15.4%, Cc1ccc(CN(C(=O)c2ccc(C(C)(C)C)cc2)c2ccccn2)o1 -34.8%, CCn1ccc2cc(S(=O)(=O)N3CCCN(C(=O)Nc4ccccc4F)CC3)ccc21 -3.63%, O=C(COC(=O)c1cc(-c2cccs2)nc2ccccc12)c1ccc(F)cc1 -14.1%, O=C(CSc1nnc(-c2ccc3c(c2)OCO3)o1)Oc1ccccc1 -8.57%, COc1cccc(Cn2c(SCC(=O)N3CCN(c4ccc(F)cc4)CC3)nc3ccccc32)c1 -6.69%, CCOc1cc(C2c3c(-c4cc(C)ccc4O)n[nH]c3C(=O)N2CCCOC(C)C)ccc1O (stereo not drawn) -15.2%, Cc1ccc(Cn2cc(S(=O)(=O)c3cccc(C)c3)c(=O)c3cc(F)c(N4CCOCC4)cc32)cc1 -8.98%, COc1cccc(Cc2nc3ccccc3nc2SCC(=O)Nc2cccc(C)c2)c1 -7.02%, COc1ccc(CNC(=O)c2sc3nc4n(c(=O)c3c2C)CCCC4)cc1 -16.9%, O=C(Nc1cc(-c2ccccc2)sc1C(=O)O)c1cccc(F)c1 -1.56%, O=C(Cn1c(=O)n(Cc2nc(-c3ccccc3)no2)c(=O)c2cc3c(cc21)OCO3)Nc1ccccc1 -19.4%, CCC(C)n1c(=O)c2sccc2n2c(CCCC(=O)N3CCN(c4ccccc4)CC3)nnc12 (stereo not drawn) -6.58%, CCOc1ccc(-n2c(SCC(=O)Nc3cc(C)ccc3C)nc3c([nH]c4ccccc43)c2=O)cc1 -8.71%, CC(C)c1ccc(NC(=O)CSC2=Nc3ccccc3C3=NC(CCC(=O)NC4CCCCC4)C(=O)N23)cc1 (stereo not drawn) -9.09%, COc1ccc2c(c1)CCc1c(C(=O)Nc3cc(OC)c(Cl)cc3OC)noc1-2 -5.8%, COC(=O)c1cc(Nc2nc3ccccc3nc2NS(=O)(=O)c2ccc(C)cc2)ccc1Cl -15.3%, O=C(Cc1ccccc1)Nc1sc2c(c1C(=O)Nc1ccccc1Cl)CCCCC2 -3.28%, COc1ccc2cc([C@H](C)C(=O)O)ccc2c1 -2.11%, Cc1ccc(-n2c(=O)c3cccnc3n2CC(=O)NCc2ccc(Cl)cc2)cc1 -20.9%, Cc1ccc2oc3c(c(=O)c2c1)C(c1ccc(O)cc1)N(CCCN(C)C)C3=O (stereo not drawn) 1.33%, COc1ccc(C(=O)Nc2cccc(C(=O)OCc3cc(=O)n4nc(C5CC5)sc4n3)c2)cc1 -14.4%, Cc1cc(F)ccc1NC(=O)C(c1ccccc1)N1Cc2ccccc2C1=O (stereo not drawn) -17.8%, COC(=O)c1ccc([C@@H]2Nc3c(OC)ccc(C)c3[C@@H]3C=CC[C@@H]32)cc1 -5.64%, Nc1c(C(=O)Nc2ccc(F)cc2)sc2nc(-c3cccs3)cc(C(F)(F)F)c12 -13.6%, Cc1cccc(Nc2ncnc3onc(-c4ccc(Cl)cc4)c23)c1C -20.6%, O=C(CCS(=O)(=O)c1cc2c(cc1Cl)NC(=O)CO2)NCc1ccc(Cl)cc1 -5.65%, CCn1c2ccccc2c2cc(CN3CCN(Cc4ccc(Br)cc4)CC3)ccc21 -7.6%, CC1N=C2c3ccccc3N=C(SCC(=O)NCCc3ccc(Cl)cc3)N2C1=O (stereo not drawn) -5.75%, CCOc1ccc(CC(=O)Nc2cccc(-c3nc4cccnc4s3)c2C)cc1 -13.7%, Cc1ccccc1NC(=O)Cn1c(=O)n(CCCC(=O)NCc2ccc3c(c2)OCO3)c(=O)c2ccccc21 -10.1%, COc1ccc2[nH]cc(CCN=C(NC(=O)c3ccccc3F)Nc3nc(C)cc(C)n3)c2c1 -5.19%, O=c1cc(-c2ccccc2)c2ccc3c(c2o1)CN(Cc1cccc(Cl)c1)CO3 -23.9%, CCC(C)NC(=O)CN1C(=O)c2cccnc2Sc2ccccc21 (stereo not drawn) -9.07%, COc1cccc(NCc2cccn2-c2nnc(N3CCC(C)CC3)s2)c1 -23.8%, C[C@]12CCC(=O)C=C1[C@@H]1C[C@@H]1[C@H]1[C@@H]3[C@@H]4C[C@@H]4[C@@]4(CCC(=O)O4)[C@@]3(C)CC[C@@H]12 -19.2%, Cc1ccc(-c2cn3cccnc3n2)cc1NC(=O)C(C)(C)Oc1ccc(Cl)cc1 18.3%, COc1ccc(Cl)cc1NC(=O)c1c(NCc2ccc(C)o2)sc2c1CCC(C)C2 (stereo not drawn) -13.8%, Cc1c(C(=O)Nc2ccccc2Br)oc2ccc(S(=O)(=O)N3CCCCCC3)cc12 -14%, C=C(C)CSc1nc2sc3c(c2c(=O)n1Cc1ccccc1)CC(C)(CC)OC3 (stereo not drawn) -6.09%, Cc1nc(N)nc(N)c1-c1ccc(Cl)c(Cl)c1 -6.75%, O=C(O)c1cc(=O)[nH]c(=O)[nH]1 -3.02%, Cn1c(=O)c2sccc2n2c(CCC(=O)N3CCN(c4ccccc4)CC3)nnc12 -19.7%, CCC(=O)Nc1sc2c(c1C(=O)Nc1ccccc1C)CCC(C)C2 (stereo not drawn) -15.7%, Cc1ccc(-n2nc3ccc(NC(=O)c4cc5ccccc5o4)cc3n2)cc1 -15.6%, COc1ccc2nc(NC(=O)c3ccc(S(=O)(=O)N4CCC(C)CC4)cc3)sc2c1 -11.2%, COC(=O)c1ccccc1NC(=O)c1noc2c1CSc1ccccc1-2 -3.38%, Cc1cccc(C)c1OCCCCn1c(C2CC(=O)N(c3ccc(F)cc3)C2)nc2ccccc21 (stereo not drawn) -2.77%, CCOC(=O)c1cccc(NC(=O)NCCc2c(C)nn(C)c2C)c1 -8.83%, CCc1ccc(NC(=O)N2CCN(Cc3cc(=O)n4nc(-c5ccccc5OC)sc4n3)CC2)cc1 -15.6%, CCC(Cc1ccccc1)NC(=O)c1oc(=O)c2ccccc2c1-c1ccccc1 (stereo not drawn) -9.97%, COc1ccc(-c2nc(CSCC(=O)NCCc3ccc(C)cc3)c(C)o2)cc1OC -16.7%, COC(=O)c1cc2occc2n1CC(=O)Nc1cccc(SC)c1 -13.1%, CCn1c(=N)c(C(=O)NCc2cccnc2)cc2c(=O)n3cc(C)ccc3nc21 -15.1%, CC(=O)NCCCCCC(=O)O -12.1%, O=S(=O)(NCC(c1ccco1)N1CCN(c2ccc(F)cc2)CC1)c1ccccc1 (stereo not drawn) -19.7%, CCOC(=O)Cn1cc2c(c1-c1ccc(Cl)cc1)c(=O)n(C)c(=O)n2C -18.7%, CCc1noc2nc(C)n(CC(=O)O)c(=O)c12 -5.68%, CN(C(=O)CSc1nc2ccccc2n1CC(=O)NCc1ccc(F)cc1)c1ccc(F)cc1 -14.5%, CCS(=O)(=O)c1ccccc1C(=O)N(Cc1cccnc1)c1nc2cc(C)c(C)cc2s1 -8.21%, CCOc1ccc(CNC(=O)c2ccc(NC(=O)c3nsc4ccccc34)cc2)cc1 -34.9%, O=c1n(CCCN2CCN(c3cccc(Cl)c3)CC2)nc2ccccn12 -14.9%, Cc1c(C(=O)NCc2ccc(Cl)cc2)sc2nc3n(c(=O)c12)CCCC3 -20.1%, COc1ccccc1Cc1nc2ccccc2nc1SCC(=O)NCCc1ccccc1 -6.32%, CCCCN(Cc1ccccc1)S(=O)(=O)c1ccc2c(c1)CC(C)N2C(=O)CC (stereo not drawn) 17.2%, CCN(CC)CCCNC(=O)c1c(C)oc2ncnc(N3CCOCC3)c12 -8.8%, Cc1ccc(-c2noc(CN(C3CCCCC3)S(=O)(=O)c3ccc(Cl)cc3)n2)cc1 -10.6%, Oc1ccc(Cl)cc1Sc1cc(Cl)ccc1O -13.3%, COc1ccc(-c2nc3n(n2)C(c2ccccc2F)C(C(=O)Nc2cccnc2)=C(C)N3)cc1OC (stereo not drawn) -17.4%, Cc1ccc(CNc2ncnc3c2c(-c2ccccc2)cn3-c2cccc(Cl)c2)cc1 0.788%, Cc1cccc(-n2c(=O)c3c(c4cc(C)ccc4n3C)n(CC(=O)Nc3ccccc3C(F)(F)F)c2=O)c1 -13.7%, c1ccc(C(c2cccs2)c2c[nH]c3ccccc23)cc1 (stereo not drawn) -0.519%, COCCCNC(=O)c1sc2ncccc2c1-n1cccc1 -14.9%, O=C(Nc1ccc(F)c(Cl)c1)N1CCN2CCCCC2C1 (stereo not drawn) -6.73%, COc1ccc(C2CC(=O)c3c([nH]c(C(=O)OC4CCC(C)CC4)c3C)C2)cc1OC (stereo not drawn) -2.28%, CCCCN(C(=O)c1cccc(S(=O)(=O)N2CCCCC2)c1)C1CCS(=O)(=O)C1 (stereo not drawn) -11.1%, O[C@@H](CNC[C@H](O)[C@H]1CCc2cc(F)ccc2O1)[C@@H]1CCc2cc(F)ccc2O1 -8.01%, Cc1ccc2cccc(NC(=O)c3cccc4ccccc34)c2n1 -12.6%, CCN(CC)c1ccc(-c2nc(-c3ccncc3)no2)cc1[N+](=O)[O-] -11.9%, CCc1cccc2sc(N3CCN(C(=O)C4CC4)CC3)nc12 -17.2%, CCCCNC(=O)CSc1nc2cc3c(cc2c(=O)n1CCCC(=O)NCc1ccc2c(c1)OCO2)OCO3 -7.42%, Cc1cc(C)cc(C(=O)N2CC(=O)Nc3ccc(C)cc3C2c2ccccc2)c1 (stereo not drawn) -2.24%, CCN1C(=O)c2cccc3c(S(=O)(=O)Nc4ccc(O)c(C(=O)O)c4)ccc1c23 -20.7%, CCS(=O)(=O)Nc1cc(-c2cn3ccc(C)cc3n2)ccc1C -16.9%, CCOc1ccccc1C(=O)N(Cc1ccc(N(C)C)cc1)CC1CCCO1 (stereo not drawn) -14.2%, CC(C)(C)OC(=O)N1CCC(c2c(C(=O)N3CCc4ccccc4C3)cnn2-c2ccc(Cl)cc2)CC1 -33%, Cc1ccc(CNC(=O)C(=O)NCC(c2cccs2)S(=O)(=O)c2ccc(C)cc2)cc1 (stereo not drawn) 2.04%, COC(=O)c1sccc1S(=O)(=O)N(CC(=O)NCc1ccccc1)c1ccccc1 -9.8%, Cc1ccc(CNC(=O)CSc2ncc(S(=O)(=O)c3ccc(Br)cc3)c(=O)[nH]2)cc1 -8.88%, Nc1c(C(=O)Nc2ccccc2Cl)c2ccccn2c1C(=O)c1ccc(Cl)cc1 -14.4%, COc1ccc(NC(=O)CSc2nc3c([nH]c4ccccc43)c(=O)n2C)cc1 -1.27%, CCn1c(C)c(C2N3CC4(C)CN2CC(CC)(C3)C4=O)c2ccccc21 (stereo not drawn) -14%, CCc1nn(CC(=O)NCCC(C)C)c(=O)c2cc3occc3n12 0.275%, COc1ccc(NS(=O)(=O)c2ccc3c(c2)C(C(C)C)C(=O)N3)cc1 (stereo not drawn) -23.9%, COc1ccc(Nc2ncnc3c2cnn3-c2ccc(C)cc2C)cc1 -16.9%
